According to PubChem BioAssay AID686978 (National Center for Advancing Translational Sciences (NCATS), 2013):
Screen size: about 420,000 compounds; about 64,000 (15%) were called active. The inconclusive results got no clear call from the source; some entries with a clear call stand among them for comparison. The call rests on the fitted dose curve; in most records, active means well fitted inhibition curve with a large enough effect; inconclusive means small, poorly fitted or top-dose-only effect; inactive means flat fitted curve, though single readings scatter. Potencies of inconclusive entries are left out as doubtful fits.

assay: qHTS for Inhibitors of human tyrosyl-DNA phosphodiesterase 1 (TDP1): qHTS in cells in absence of CPT; conditions: DT40 Tdp1-/- hTDP1 cells, no CPT, ATP luminescence, 48 h; activity change, negative = growth inhibition: at 46.2 µM (top of the series) unless noted; further: nearly all actives have a fitted effect of over 55% in size
Procedure, shortened: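 Seeded 400 DT40-hTDP1 cells/well (vehicle DMSO, no 20 nM CPT); pinned compounds; ≥48 hr at 37 °C; CellTiter-Glo luminescence as viability measure.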
On the % scale 0 is the no-effect control and ±100 the full control effect; potency means the concentration at half of the fitted maximal effect; tags describe the fitted curve by direction and shape.

Compound | activity change, negative = growth inhibition | Potency
CN(C(=O)c1ccc(C#N)cc1)c1nnc(-c2ccccn2)s1 | inactive: -8.32% | 
COC(=O)c1cc2nc(-c3ccccc3)cc(C(F)(F)F)n2n1 | inactive: -1.82% | 
CC1(C(=O)NS(=O)(=O)c2cccc(F)c2)CCN1C(=O)Cc1cccc2ccccc12 (configuration not stated) | inactive: 2.93% | 
O=C(Oc1ccccc1)N1CCC[C@@]2(CCN(c3ccccc3)C2)C1 |  | inconclusive [inhibitor, single point]
O=C(N/N=C1\CC(c2ccccc2)Oc2ccccc21)c1cccnc1 (configuration not stated) |  | active: 20.6 µM
O=[N+]([O-])c1ccccc1C=NNc1ccccc1 |  | inconclusive [inhibitor, partial curve]
CCNC(=O)C1(C)CCCCN1Cc1ccc(C#N)cc1 (configuration not stated) |  | inconclusive [inhibitor, partial curve]
Cc1ccc(C)c(SCC(=O)OC/C(O)=C(\C#N)c2nc3ccccc3[nH]2)c1 |  | inconclusive [inhibitor, single point]
CC(=O)Nc1c(O)n(C)c2ccccc12 | inactive: -12.3% | 
Cc1cc2nc(N3C(=O)CNC3=S)sc2cc1C |  | active: 5.8 µM
C#CCN(CC=C)C(=O)c1ccc(OC2CCN(S(=O)(=O)N(C)C)CC2)cc1 | inconclusive: -33.6% [inhibitor] | 
COc1ccc(-c2onc(C)c2C)cc1S(=O)(=O)NCCc1ccccc1 |  | inconclusive [inhibitor, single point]
c1ccc(-c2cccc(N3CCCC4(CCNCC4)C3)c2)cc1 |  | active: 20.6 µM
COc1cc(OC)cc(-c2oc(=O)c3cc(OC)c(OC)cc3c2C(F)(F)F)c1 | inactive: -4.74% | 
O=C(Nc1ccon1)c1cc2ccccc2oc1=O | inactive: -8.81% | 
CCC(=O)Nc1nnc(S(=O)(=O)N(CC)c2cc(C)cc(C)c2)s1 | inactive: -5.12% | 
CC(=O)NS(=O)(=O)c1ccc(NC(=O)NC2CCCCC2)cc1 | inactive: -5.41% | 
COCC(=O)Nc1cc(C(=O)N2CCN(C3CCCC3)C(=O)C2)c2c(c1)nc(-c1ccncc1)n2C | inactive: -9.36% | 
COC(=O)C(Cc1ccccc1)NC(=O)CNC(=O)c1sc2ccccc2c1Cl (configuration not stated) |  | inconclusive [inhibitor, single point]
Oc1ccc(Br)cc1-c1ccn[nH]1 | inactive: -25.4% | 
O=C(Nc1cccc(S(=O)(=O)N2CCCCC2)c1)C1CC(=O)N(c2ccc3c(c2)OCCO3)C1 (configuration not stated) | inactive: -14.1% | 
OCCC1CN(Cc2cccc(-c3ccco3)c2)CCN1Cc1ccsc1 (configuration not stated) |  | inconclusive [inhibitor, single point]
C/C(=N\NC(=S)NCc1ccccc1)c1ccc2ccccc2c1OC(F)F |  | inconclusive [inhibitor, single point]
O=C(CN1CCc2ccccc2C1)Nc1ccccc1Cl |  | inconclusive [inhibitor, partial curve]

Compound | activity change, negative = growth inhibition | Potency
COc1ccc(CCN2C(=O)N(c3cccc(OC)c3)C(=O)C2CC(=O)Nc2ccccc2)cc1 (configuration not stated) |  | inconclusive [inhibitor, single point]
CCOC(=O)c1ccc(Nc2cc(C)nc(-c3ccccc3)n2)cc1 |  | active: 5.17 µM
N#Cc1ccc(Oc2nc(Nc3ccc(F)cc3)nc(N3CCCC3)n2)cc1 |  | inconclusive [inhibitor, single point]
CCOC(=O)c1c(C)[nH]c(CCC(=O)NCc2cc(OC)c(OC)c(OC)c2)c1C |  | inconclusive [inhibitor, partial curve]
COc1cc(-n2c(=O)c3ccccc3n(Cc3cccc(Cl)c3)c2=O)cc(OC)c1OC |  | inconclusive [inhibitor, partial curve, poor fit]
O=C(Nc1cccc(C(F)(F)F)c1)NC1CCN(S(=O)(=O)c2ccc(F)cc2)CC1 |  | inconclusive [inhibitor, partial curve]
CCc1ccc(C2=NN(CCC(=O)NC3CCCCCC3)C(=O)CC2)cc1 |  | inconclusive [inhibitor, single point]
COc1ccccc1-c1cc2c(c(OC)c1)OCCN(CCC(C)c1ccc(C)o1)C2 (configuration not stated) | inactive: -12.7% | 
O=[N+]([O-])c1ccc(NNC(=S)Nc2ccc(F)cc2)cc1 |  | active: 3.26 µM
COc1ccc(CNC(=O)CN2C(=O)CCn3nc(-c4cn(C)c5ccccc45)cc32)cc1 |  | inconclusive [inhibitor, single point]
O=C(CCl)NCCNC(=O)c1cc(OCC(F)(F)F)ccc1OCC(F)(F)F |  | inconclusive [inhibitor, single point]
O=C(CSc1nnc(-c2ccccc2)o1)c1ccc2c(c1)OCCO2 |  | inconclusive [inhibitor, single point]
Cc1[nH]c2ccc(C(=O)N3CCN(Cc4ccccc4)CC3)cc2c1C | inactive: -16.2% | 
CC1CCCN(CCOCCSc2ccccc2)C1 (configuration not stated) |  | inconclusive [inhibitor, partial curve]
O=C1C(C=NCCCN2CCCC2=O)=C(O)c2ccccc21 | inactive: 1.16% | 
COC(=O)c1cc(Cl)c(NC(=O)c2cc3ccccc3o2)cc1OC | inconclusive: -33.7% [inhibitor] | 
CC(C(=O)NC1CCCC1)N(C(=O)Cn1nnc(-c2ccc(F)cc2)n1)c1ccccc1F (configuration not stated) |  | active: 23.1 µM
CCOc1ccccc1CNC(=O)Cn1nc(C)c2c(C)n(-c3ccc(C)cc3)nc2c1=O |  | inconclusive [inhibitor, single point]
COc1cc(OC)cc(C(=O)N/N=C/c2ccc(OC)c(COc3ccc(F)cc3)c2)c1 |  | active: 2.91 µM
COc1cccc(C2CC(c3ccccc3)=NN2S(=O)(=O)c2ccc(C)cc2)c1OC (configuration not stated) |  | inconclusive [inhibitor, single point]
CN1CCC(=O)N([C@H](CSc2ccccc2)Cc2ccccc2)CC1 |  | inconclusive [inhibitor, single point]
O=C(Nc1ccc(F)cc1F)C1CCCN1S(=O)(=O)c1ccc(-c2ccc(=O)[nH]n2)s1 (configuration not stated) | inactive: -27.4% | 
CCOC(=O)C1=C(C)n2c(s/c(=C3\C(=O)Nc4ccccc43)c2=O)=NC1c1ccc(OC)cc1 (configuration not stated) |  | active: 20.6 µM
